{
  "source": "paper PMC11061317",
  "key": {"[1]": {"molecular_target": "exogenously expressed Rheb (UniProt Q15382)", "test": "co-IP; exogenously expressed Rheb, with or without insulin; Supplementary Fig. S3a, b, not shown"}, "[2]": {"molecular_target": "SFB-tagged ATP6AP1 C-tail (30)", "test": "co-IP; lysates of HEK293T cells transiently co-expressing GST-tagged Rheb-G63V and SFB-tagged WT or mutant ATP6AP1; IP with anti-Flag antibody, immunoblot"}, "[3]": {"molecular_target": "SFB-tagged ATP6AP1 SP-TM-C-tail (UniProt Q15904)", "test": "co-IP; lysates of HEK293T cells transiently co-expressing GST-tagged Rheb-G63V and SFB-tagged WT or mutant ATP6AP1; IP with anti-Flag antibody, immunoblot"}, "[4]": {"molecular_target": "SFB-tagged ATP6AP1 (wild type, full length) (UniProt Q15904)", "test": "co-IP; HEK293T cells stably expressing SFB-tagged ATP6AP1 or GFP, serum starved, with or without insulin for 15 min; IP with anti-Flag antibody, immunoblot"}, "[5]": {"molecular_target": "GST-tagged Rheb-G63V expressed in HEK293T (UniProt Q15382)", "test": "pull-down; HEK293T cells transiently co-expressing GST-tagged WT or mutant Rheb and SFB-tagged WT or mutant ATP6AP1; GST pull-down and western blot; GST-GFP as negative control"}, "[6]": {"molecular_target": "GST-tagged wild-type Rheb expressed in HEK293T (UniProt Q15382)", "test": "pull-down; HEK293T cells transiently co-expressing GST-tagged WT or mutant Rheb and SFB-tagged WT or mutant ATP6AP1; GST pull-down and western blot; GST-GFP as negative control"}, "[7]": {"molecular_target": "GST-tagged Rheb-G63A expressed in HEK293T (UniProt Q15382)", "test": "pull-down; HEK293T cells transiently co-expressing GST-tagged WT or mutant Rheb and SFB-tagged WT or mutant ATP6AP1; GST pull-down and western blot; GST-GFP as negative control"}, "[8]": {"molecular_target": "biotinylated synthetic peptide of the ATP6AP1 C-tail (12) with the Q468G mutation (UniProt Q15904)", "test": "condition: 1 µg recombinant protein with peptide at a 1:5 molar ratio in 300 µL; pull-down; recombinant Rheb (1 ug) and biotinylated C-tail peptide at a 1:5 molar ratio in 300 uL NETN buffer (40 mM Tris-HCl, 100 mM NaCl, 0.5% NP-40, 1 mM EDTA, 10% glycerol) with 15 uL streptavidin beads, 2 h at 4 °C; SDS-PAGE and immunoblot; both purified"}},
  "note": "These are yes or no findings as the source states them, for the method shown. For part of these data: In cells and extracts the contact can be indirect. Some entries that bind do so weakly or less than the wild type.",
  "data": [
    {"substance": "ATP6AP1 co-immunoprecipitated with exogenously expressed Rheb (from UniProt Q15904 42-470)", "values": [
      {"measurement": "binding", "setting": "[1]", "result": "binds"}
    ]},
    {"substance": "GST-tagged Rheb-G63V expressed in HEK293T (from UniProt Q15382 1-184)", "values": [
      {"measurement": "binding", "setting": "[2]", "result": "binds"},
      {"measurement": "binding", "setting": "[3]", "result": "binds"}
    ]},
    {"substance": "Rheb (endogenous, HEK293T) (from UniProt Q15382 1-184)", "values": [
      {"measurement": "binding", "setting": "[4]", "result": "binds"}
    ]},
    {"substance": "SFB-tagged ATP6AP1 (wild type, full length) (from UniProt Q15904 42-470)", "values": [
      {"measurement": "binding", "setting": "[5]", "result": "binds"},
      {"measurement": "binding", "setting": "[6]", "result": "binds"},
      {"measurement": "binding", "setting": "[7]", "result": "binds"}
    ]},
    {"substance": "SFB-tagged ATP6AP1 with Q468 mutated (from UniProt Q15904 42-470)", "values": [
      {"measurement": "binding", "setting": "[5]", "result": "no binding"}
    ]},
    {"substance": "bacterially purified GST-tagged Rheb (from UniProt Q15382 1-184)", "values": [
      {"measurement": "binding", "setting": "[8]", "result": "no binding"}
    ]}
  ]
}
